Laboratory results taken from PubChem BioAssay AID1346378 (National Center for Advancing Translational Sciences (NCATS), 2018).
In all, about 420,000 compounds went through this assay and about 540 (0.13%) were called active. Inconclusive means that the source gave no clear call. Such entries were picked first, then a sample of the others. Rule as the data show it: active = activity change below about -50%; inconclusive = mostly about -30% to -49%; inactive = weaker than that.

biological target: Phosphatidylinositol 4-kinase type 2-alpha (Homo sapiens) (UniProt Q9BTU6); assay: qHTS for small molecular inhibitors of PI4K2A; conditions: purified PI4K2A, ADP-Glo luminescence, 1 h; at 76.9 µM, active compounds read low;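 also: -100% = wells without enzyme as full effect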
Method in brief: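 ADP-Glo luminescence measured ADP generated by PI4K2A enzyme (4 ug/mL before mixing) with 1.2 mM PI substrate (pre-mix) and 300 microM ATP (pre-mix). Tris pH7.5 buffer with MgCl2, Triton X-100; 1 h reaction at ambient temperature.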

Sequence of UniProt Q9BTU6 (Q9BTU6 whole entry, looked up): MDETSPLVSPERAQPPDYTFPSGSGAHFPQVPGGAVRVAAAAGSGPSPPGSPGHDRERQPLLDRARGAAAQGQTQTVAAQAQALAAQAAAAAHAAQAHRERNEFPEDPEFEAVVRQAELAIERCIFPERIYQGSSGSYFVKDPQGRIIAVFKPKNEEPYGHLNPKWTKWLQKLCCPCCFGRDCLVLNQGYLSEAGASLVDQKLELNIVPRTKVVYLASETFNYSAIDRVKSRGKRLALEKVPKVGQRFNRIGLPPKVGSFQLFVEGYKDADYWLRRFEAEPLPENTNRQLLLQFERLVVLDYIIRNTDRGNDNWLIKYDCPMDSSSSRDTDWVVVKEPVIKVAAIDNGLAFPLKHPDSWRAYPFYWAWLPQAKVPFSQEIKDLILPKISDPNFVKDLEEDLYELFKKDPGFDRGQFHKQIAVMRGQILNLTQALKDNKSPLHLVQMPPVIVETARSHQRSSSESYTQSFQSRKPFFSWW

Row | Structure (SMILES) | activity change, negative = inhibition
1 | CC1CCN(c2nc3c(N)ncnc3n2[C@@H]2O[C@H](CO)[C@@H](O)[C@H]2O)CC1 | inconclusive: -36.7%
2 | COC(=O)c1ccc2nc(-c3ccco3)c(Cc3ccc(OC)cc3C)n2c1 | inconclusive: -33.8%
3 | N#C/C(=C\c1cc(Br)c(O)c(Br)c1)c1nc2ccccc2c(=O)[nH]1 | inconclusive: -43.2%
4 | O=C1C(=O)c2c(ccc3ccccc23)-c2ccccc21 | inconclusive: -41.9%
5 | CCOc1cccc(CNc2ccc(O)cc2)c1OCc1ccc(Cl)cc1 | inconclusive: -40.3%
6 | CCCCn1nc(C(=O)Oc2ccc3c(C)cc(=O)oc3c2)c2ccccc2c1=O | inactive: -4.71%
7 | COC(=O)c1cc(C(=O)c2ccc(Cl)cc2Cl)cn1C | inactive: -0.788%
8 | CSc1ccc(C2NN=C(c3ccccc3)S2)cc1 (stereo not drawn) | inconclusive: -31.3%
9 | COc1ccc(-c2cc(NC(C)=O)c3ncc(-c4ccc(OC)c(OC)c4)n3c2)cc1OC | inconclusive: -39.6%
10 | Cc1nnc(SCC(=O)N2CCN(c3ccccc3F)CC2)n1C1CC1 | inactive: 4.12%
11 | CCOC(=O)COc1ccc(Br)cc1/C=C/c1[nH]c(=O)[nH]c(=O)c1[N+](=O)[O-] | inconclusive: -49.8%
12 | COc1cc(/C=C2\NC(=S)N(C)C2=O)ccc1O | inactive: -2.79%
13 | COc1ccc(N2Cc3ccccc3C2=O)cc1 | inconclusive: -36.3%
14 | COc1cccc(NC(=O)C2CCC(CNS(=O)(=O)c3csc(C(N)=O)c3)CC2)c1 (stereo not drawn) | active: -66.3%
15 | O=[N+]([O-])c1c(Nc2ccccn2)cc(Cl)c2nonc12 | inconclusive: -32.5%
16 | COC1=C(Nc2ccccc2)C(=O)c2ccccc2C1=O | inconclusive: -33%
17 | Nc1ccc(Oc2ncccn2)cc1 | active: -53.7%
18 | O=C(Nc1ccc(N2CCOCC2)nc1)c1ccc(Cl)cc1 | inconclusive: -47.4%
19 | COc1cccc(C(=O)Nc2ccc(C3CC3(Cl)Cl)cc2)c1 (stereo not drawn) | inconclusive: -32.3%
20 | O=C(COC(=O)c1ccccc1)c1ccc2c(c1)OCCO2 | active: -52.5%

Row | Structure (SMILES) | activity change, negative = inhibition
21 | COc1ccc(-c2cc3nc(C)cc(-c4ccc(OC)cc4)n3n2)cc1 | inactive: -1.4%
22 | O=c1c2ccccc2nc(SCc2ccccc2)n1Cc1ccco1 | inactive: -1.07%
23 | O=c1c(-c2ccco2)nc2ccccc2n1C(c1ccccn1)c1nc2ccccc2[nH]1 (stereo not drawn) | inconclusive: -33%
24 | O=C(CS(=O)(=O)c1ccccc1)c1cc2ccccc2oc1=O | inconclusive: -36.7%
25 | Cn1cccc1CC(=O)N/N=C/C=C/c1ccco1 | inconclusive: -43.8%
26 | CC(C)Cn1cc(NC(=O)Nc2cccc(C(F)(F)F)c2)c2ccccc2c1=O | inconclusive: -31.8%
27 | CC1=CC(C)C2COC(c3ccc[n+](C)c3)C1C2C (stereo not drawn) | inactive: -4.86%
28 | C=CCn1c(C)cc(-c2csc(NC(=O)C3=COCCO3)n2)c1C | inconclusive: -34.7%
29 | O=C(Nc1ccc(C(=O)N2CCCCC2)cc1)c1ccccc1 | inconclusive: -41.6%
30 | COc1cc(-c2nnc3sc(Cc4ccccc4)nn23)cc(OC)c1OC | inconclusive: -35.3%
31 | Cc1ccc(C(=O)COC(=O)COc2ccccc2[N+](=O)[O-])s1 | inactive: 4.05%
32 | COCCNC(=O)/C(C#N)=C/c1ccc(O)cc1 | active: -69.3%
33 | COc1cccc(/C=N/n2c(C)nc3ccccc32)c1OC | inactive: 1.81%
34 | O=S(=O)(c1ccc2nc(-c3ccco3)c(-c3ccco3)nc2c1)N1CCOCC1 | active: -54.7%
35 | CCCNC(=O)c1nc(C)n(-c2cc(Cl)cc(Cl)c2)n1 | inactive: -2.38%
36 | c1ccc(CCSc2nnc(-c3cccnc3)n2Cc2ccccc2)cc1 | inactive: 7.7%
37 | C#CCOc1ccc(/C=C2/C(=O)N(c3cccc(C(=O)O)c3)N=C2C)cc1OC | inconclusive: -46.5%
38 | Cc1ccc(NC(=O)CN2C(=O)N/C(=C/c3cccn3-c3ccc(C(=O)O)cc3)C2=O)cc1 | inconclusive: -34.8%
39 | CCc1c(C)[nH]n(-c2ccc(Oc3ccccc3)c(S(=O)(=O)O)c2)c1=O | inconclusive: -30.2%
40 | Cc1ccsc1/C=N/Nc1nc(=O)[nH]nc1C | active: -71.4%

Row | Structure (SMILES) | activity change, negative = inhibition
41 | Cc1occc1C(=O)Nc1ccc(OCc2ccccc2)cc1 | inconclusive: -39.7%
42 | CCC(C)(NC(=O)Cc1c[nH]c2ccccc12)C(=O)NC1CCCCC1 (stereo not drawn) | inactive: 3.42%
43 | O=c1[nH]c(-c2ccccn2)nc2ccccc12 | inconclusive: -34.3%
44 | O=C1C=CC2(C=C1)O[C@H](Cc1ccccc1)[C@@H](Cc1ccccc1)O2 | inconclusive: -38%
45 | Cc1cccc(OCc2nc(-c3ccccn3)n[nH]2)c1 | inactive: 3.9%
46 | COc1ccccc1N(O)C1CC(=O)N(c2ccc(F)cc2)C1=O (stereo not drawn) | inconclusive: -45.7%
47 | C[n+]1cccc2ccc3c(c21)OC(N)=C(C#N)C3c1ccccc1 (stereo not drawn) | inconclusive: -34.2%
48 | COc1ccc(C(C(=O)Nc2c(C)cccc2C)n2c(=O)c(-c3ccco3)nc3ccccc32)cc1 (stereo not drawn) | inconclusive: -46.2%
49 | CC(C)c1ccc(S(=O)(=O)/N=C2/C=C(Sc3ncn[nH]3)C(=O)c3ccccc32)cc1 | active: -54.7%
50 | CCCN(CCC)C(=O)c1cc([N+](=O)[O-])cc2c1-c1ccc([N+](=O)[O-])cc1C2=C(C#N)C#N | inactive: 1.19%
51 | COC(=O)c1sccc1NC(=O)Nc1ccc(F)cc1 | inconclusive: -32.9%
52 | CC1CCN(C2=C(NS(=O)(=O)c3ccc(Br)cc3)C(=O)c3ccccc3C2=O)CC1 | inconclusive: -30.6%
53 | CCOC(=O)NNc1ccc2nonc2c1[N+](=O)[O-] | inconclusive: -41.6%
54 | O=C(/C=C/Nc1ccccc1Br)c1ccccn1 | inconclusive: -30.1%
55 | CSc1ccc(/C=C/c2nc3ccccc3n2S(=O)(=O)c2cccc(Cl)c2)cc1 | inconclusive: -42.8%
56 | Cc1ccnc(NC(=O)c2ccc(OCC3CCCO3)cc2)c1 (stereo not drawn) | active: -62.8%
57 | O=C(O)c1ccc(-c2nnc(-c3ccccc3)o2)cc1 | inconclusive: -36%
58 | COc1ccc(/C(C)=N/N=C2/NC(=O)CC(C(=O)O)S2)cc1 (stereo not drawn) | inactive: -10.7%
